# According to the supplement of paper PMC8728848:
# Some of the results follow.
# Experiments:
# Experiment in all cases: glycan array binding signal (z-score within array); higher = stronger binding
# Details in all cases: glycan notation: IUPAC condensed, linker removed
# [1] = target: Neu5Ac(a2-3)Gal(b1-4)GlcNAc(b1-2)[Neu5Ac(a2-3)Gal(b1-4)GlcNAc(b1-4)]Man(a1-3)[GlcNAc(b1-4)][Neu5Ac(a2-3)Gal(b1-4)GlcNAc(b1-4)Man(a1-6)]Man(b1-4)GlcNAc(b1-4)GlcNAc
# In short: (§1)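 Negative Z-scores can be read as non-binding. The Z-score is calculated within each array and then averaged across arrays of one protein sequence at different concentrations or buffers and across linkers. Arrays, 3228 in all, were curated from the Consortium for Functional Glycomics database and kept only where the protein sequence was available.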
# [2] = target: Neu5Ac(a2-3)Gal(b1-4)GlcNAc(b1-2)[Neu5Ac(a2-3)Gal(b1-4)GlcNAc(b1-6)]Man(a1-6)[Neu5Ac(a2-3)Gal(b1-4)GlcNAc(b1-2)Man(a1-3)]Man(b1-4)GlcNAc(b1-4)GlcNAc
# In short: as §1
# [3] = target: Neu5Ac(a2-3)Gal(b1-4)GlcNAc(b1-2)[Neu5Ac(a2-3)Gal(b1-4)GlcNAc(b1-6)]Man(a1-6)[Neu5Ac(a2-3)Gal(b1-4)GlcNAc(b1-2)Man(a1-3)][GlcNAc(b1-4)]Man(b1-4)GlcNAc(b1-4)GlcNAc
# In short: as §1
# [4] = target: Neu5Ac(a2-3)Gal(b1-4)GlcNAc(b1-3)Gal
# In short: as §1
# [5] = target: Neu5Ac(a2-3)Gal(b1-4)GlcNAc(b1-3)Gal(b1-3)GlcNAc
# In short: as §1
# [6] = target: Neu5Ac(a2-3)Gal(b1-4)GlcNAc(b1-3)Gal(b1-4)GlcNAc
# In short: as §1
# [7] = target: Neu5Ac(a2-3)Gal(b1-4)GlcNAc(b1-3)Gal(b1-4)GlcNAc(b1-2)Man(a1-3)[Neu5Ac(a2-3)Gal(b1-4)GlcNAc(b1-3)Gal(b1-4)GlcNAc(b1-2)Man(a1-6)]Man(b1-4)GlcNAc(b1-4)GlcNAc
# In short: as §1
# [8] = target: Neu5Ac(a2-3)Gal(b1-4)GlcNAc(b1-3)Gal(b1-4)GlcNAc(b1-3)Gal(b1-4)GlcNAc
# In short: as §1
# [9] = target: Neu5Ac(a2-3)Gal(b1-4)GlcNAc(b1-3)Gal(b1-4)GlcNAc(b1-3)Gal(b1-4)GlcNAc(b1-2)Man(a1-3)[Neu5Ac(a2-3)Gal(b1-4)GlcNAc(b1-3)Gal(b1-4)GlcNAc(b1-3)Gal(b1-4)GlcNAc(b1-2)Man(a1-6)]GalNAc
# In short: as §1
# [10] = target: Neu5Ac(a2-3)Gal(b1-4)GlcNAc(b1-3)Gal(b1-4)GlcNAc(b1-3)GalNAc
# In short: as §1
# [11] = target: Neu5Ac(a2-3)Gal(b1-4)GlcNAc(b1-3)Gal(b1-4)GlcNAc(b1-3)[Neu5Ac(a2-3)Gal(b1-4)GlcNAc(b1-3)Gal(b1-4)GlcNAc(b1-6)]GalNAc
# In short: as §1
# [12] = target: Neu5Ac(a2-3)Gal(b1-4)GlcNAc(b1-3)Gal(b1-4)GlcNAc(b1-6)[Gal(b1-3)]GalNAc
# In short: as §1
# [13] = target: Neu5Ac(a2-3)Gal(b1-4)GlcNAc(b1-3)Gal(b1-4)[Fuc(a1-3)]GlcNAc
# In short: as §1
# [14] = target: Neu5Ac(a2-3)Gal(b1-4)GlcNAc(b1-3)GalNAc
# In short: as §1
# [15] = target: Neu5Ac(a2-3)Gal(b1-4)GlcNAc(b1-3)[Neu5Ac(a2-3)Gal(b1-4)GlcNAc(b1-6)]GalNAc
# In short: as §1
# [16] = target: Neu5Ac(a2-3)Gal(b1-4)GlcNAc(b1-6)GalNAc
# In short: as §1
# [17] = target: Neu5Ac(a2-3)Gal(b1-4)GlcNAc(b1-6)[Gal(b1-3)]GalNAc
# In short: as §1
# [18] = target: Neu5Ac(a2-3)Gal(b1-4)GlcNAc(b1-6)[Neu5Ac(a2-3)Gal(b1-3)]GalNAc
# In short: as §1
# [19] = target: Neu5Ac(a2-3)Gal(b1-4)GlcNAc6S
# In short: as §1
# [20] = target: Neu5Ac(a2-3)Gal(b1-4)[Fuc(a1-3)]GlcNAc
# In short: as §1
# [21] = target: Neu5Ac(a2-3)Gal(b1-4)[Fuc(a1-3)]GlcNAc(b1-2)Man
# In short: as §1
# [22] = target: Neu5Ac(a2-3)Gal(b1-4)[Fuc(a1-3)]GlcNAc(b1-3)Gal
# In short: as §1
# [23] = target: Neu5Ac(a2-3)Gal(b1-4)[Fuc(a1-3)]GlcNAc(b1-3)Gal(b1-4)GlcNAc
# In short: as §1
# [24] = target: Neu5Ac(a2-3)Gal(b1-4)[Fuc(a1-3)]GlcNAc(b1-3)Gal(b1-4)[Fuc(a1-3)]GlcNAc(b1-3)Gal(b1-4)[Fuc(a1-3)]GlcNAc
# In short: as §1
# [25] = target: Neu5Ac(a2-3)Gal(b1-4)[Fuc(a1-3)]GlcNAc(b1-3)GalNAc
# In short: as §1
# [26] = target: Neu5Ac(a2-3)Gal(b1-4)[Fuc(a1-3)]GlcNAc(b1-6)[Gal(b1-3)]GalNAc
# In short: as §1
# [27] = target: Neu5Ac(a2-3)Gal(b1-4)[Fuc(a1-3)]GlcNAc(b1-6)[Neu5Ac(a2-3)Gal(b1-3)]GalNAc
# In short: as §1
# [28] = target: Neu5Ac(a2-3)Gal(b1-4)[Fuc(a1-3)]GlcNAc6S
# In short: as §1
# [29] = target: Neu5Ac(a2-3)Gal6S(b1-4)GlcNAc
# In short: as §1
# [30] = target: Neu5Ac(a2-3)Gal6S(b1-4)[Fuc(a1-3)]GlcNAc
# In short: as §1
# Neu5Ac(a2-3)GalNAc = target: Neu5Ac(a2-3)GalNAc
# In short: as §1
# [31] = target: Neu5Ac(a2-3)GalNAc(b1-4)GlcNAc
# In short: as §1
# [32] = target: Neu5Ac(a2-3)[GalNAc(b1-4)]Gal(b1-4)Glc
# In short: as §1
# [33] = target: Neu5Ac(a2-3)[GalNAc(b1-4)]Gal(b1-4)GlcNAc
# In short: as §1
# [34] = target: Neu5Ac(a2-3)[GalNAc(b1-4)]Gal(b1-4)GlcNAc(b1-3)GalNAc
# In short: as §1
# [35] = target: Neu5Ac(a2-3)[Neu5Ac(a2-6)]GalNAc
# In short: as §1
# Neu5Ac(a2-6)Gal = target: Neu5Ac(a2-6)Gal
# In short: as §1
binder,measurement,setting,value
Cohesin-hDECTIN-1 (Homo sapiens) (protein) LDITSHHHHHHDDLDAVRIKVDTVNAKPGDTVRIPVRFSGIPSKGIANCDFVYSYDPNVLEIIEIEPGDIIVDPNPDKSFDTAVYPDRKIIVFLFAEDSGTGAYAITKDGVFATIVAKVKEGAPNGLSVIKFVEVGGFANNDLVEQKTQFFDGGVNVGDTTEPATPTTPVTTPTTTDDLDAASSSPCPPNWIIYEKSCYLFSMSLNSWDGSKRQCWQLGSNLLKIDSSNELGFIVKQVSSQPDNSFWIGLSRPQTEVPWLWEDGSTFSSNLFQIRTTATQENPSPNCVWIHVSVIYDQLCSVPSYSICEKKFM,glycan array binding signal (z-score),[1],0.218
same,glycan array binding signal (z-score),[2],-0.273
same,glycan array binding signal (z-score),[3],-0.428
same,glycan array binding signal (z-score),[4],-0.468
same,glycan array binding signal (z-score),[5],-0.289
same,glycan array binding signal (z-score),[6],-0.547
same,glycan array binding signal (z-score),[7],-0.447
same,glycan array binding signal (z-score),[8],-0.243
same,glycan array binding signal (z-score),[9],-0.295
same,glycan array binding signal (z-score),[10],-0.213
same,glycan array binding signal (z-score),[11],-0.246
same,glycan array binding signal (z-score),[12],-0.472
same,glycan array binding signal (z-score),[13],-0.618
same,glycan array binding signal (z-score),[14],-0.281
same,glycan array binding signal (z-score),[15],-0.163
same,glycan array binding signal (z-score),[16],2.61
same,glycan array binding signal (z-score),[17],-0.363
same,glycan array binding signal (z-score),[18],-0.469
same,glycan array binding signal (z-score),[19],-0.454
same,glycan array binding signal (z-score),[20],-0.44
same,glycan array binding signal (z-score),[21],0.439
same,glycan array binding signal (z-score),[22],-0.497
same,glycan array binding signal (z-score),[23],-0.448
same,glycan array binding signal (z-score),[24],-0.537
same,glycan array binding signal (z-score),[25],-0.287
same,glycan array binding signal (z-score),[26],-0.466
same,glycan array binding signal (z-score),[27],-0.412
same,glycan array binding signal (z-score),[28],-0.344
same,glycan array binding signal (z-score),[29],-0.516
same,glycan array binding signal (z-score),[30],-0.391
same,glycan array binding signal (z-score),Neu5Ac(a2-3)GalNAc,-0.548
same,glycan array binding signal (z-score),[31],-0.416
same,glycan array binding signal (z-score),[32],0.848
same,glycan array binding signal (z-score),[33],-0.076
same,glycan array binding signal (z-score),[34],0.023
same,glycan array binding signal (z-score),[35],-0.016
same,glycan array binding signal (z-score),Neu5Ac(a2-6)Gal,-0.57
